According to PubChem BioAssay AID686978 (National Center for Advancing Translational Sciences (NCATS), 2013):
Hit rate of the full screen: of about 420,000 compounds, about 64,000 (15%) were called active. Inconclusive means that the source gave no clear call. Such entries were picked first, then a sample of the others. Calls come from the whole dose curve; as a rule, active = well fitted inhibition curve with a large enough effect; inconclusive = small, poorly fitted or top-dose-only effect; inactive = flat fitted curve, though single readings scatter. No potency is given beside an inconclusive call; the fits are too rough.

Assay: qHTS for Inhibitors of human tyrosyl-DNA phosphodiesterase 1 (TDP1): qHTS in cells in absence of CPT; note: nearly all actives have a fitted effect of over 55% in size
Conditions: DT40 Tdp1-/- hTDP1 cells, no CPT, ATP luminescence, 48 h; activity change, negative = growth inhibition: at 46.2 µM (top of the series) unless noted
In short: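 Chicken DT40 Tdp1-/- cells stably complemented with human TDP1 were seeded at 400 cells/well with DMSO in place of 20 nM camptothecin. After compound pinning, cells grew at least 48 hr at 37 °C; viability read by CellTiter-Glo luminescence.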
% is set by controls: 0 for no effect and ±100 for the full control effect; potency is the fitted concentration of half-maximal effect; tags give direction and shape of the fitted curve.

SMILES	Potency	activity change, negative = growth inhibition
O=C(CN1CCN(C2CCCCC2)CC1)Nc1ccccc1-c1ccccc1	inconclusive [inhibitor, single point]	–
CCOc1cc(CNC(=O)CSc2n[nH]c(-c3ccccc3)n2)cc(OCC)c1OCC	inconclusive [inhibitor, single point]	–
O=C(CSc1nnc(-c2cccs2)n1C1CC1)NCC1CCCO1 (centres undefined)	inactive	–
CCCn1nc(C(=O)Nc2ccc3c(c2)OCCO3)c2ccccc2c1=O	inconclusive [inhibitor, partial curve]	–
CN(C)C(CNC(=O)c1cccc(NS(=O)(=O)c2ccc(Br)cc2)c1)c1ccco1 (centres undefined)	inconclusive [inhibitor, single point]	–
CSc1ccc(CN2CCC(C)(Oc3ccccc3F)C2)cc1 (centres undefined)	inconclusive [inhibitor, single point]	–
Cc1ccc(-n2ncc(C(=O)NCC3CCN(C4CCCC4)C3)c2C2CCN(C(=O)OC(C)(C)C)CC2)cc1C (centres undefined)	inactive	–
C#CCONC(=O)c1cc(OCC(F)(F)F)ccc1OCC(F)(F)F	inactive	–
Cc1ccc(Cl)cc1N(C)C(=O)c1sc2nc3n(c(=O)c2c1C)CCCC3	active: 16.4 µM	–
Cc1cccc(NC(=O)c2ccc(S(=O)(=O)N3CCC(C)CC3)cc2)n1	active: 16.4 µM	–
Cc1cc(C)c2c(N)c(C(=O)c3ccc(Cl)cc3Cl)sc2n1	active: 18.4 µM	–
CCOC(=O)C1=C(CN2CCOCC2)NC(=O)NC1c1cccc([N+](=O)[O-])c1 (centres undefined)	inactive	–
CCCSc1nnc(Cn2c(=O)sc3ccccc32)n1-c1ccccc1	active: 18.4 µM	–
Cc1cccc(C)c1NC(=O)CN1N=NC2C(=O)N(c3cccc(Cl)c3)C(=O)C21 (centres undefined)	inactive	–
O=C(Cn1sc2ccccc2c1=O)Nc1ccc(F)cc1	active: 2.06 µM	–
Cc1ccc(C(=O)NNC(=O)CSc2nnc3c(n2)[nH]c2ccc(C)cc23)cc1	active: 18.4 µM	–
O=C(NCC1COc2ccccc2O1)c1cccs1 (centres undefined)	inactive	–
O=C(c1cnccn1)N1CCC2(CC1)CN(c1ncccn1)C2	inactive	–
Cc1cc(=O)oc2cc(OCC(=O)N3CCN(C(=O)C4COc5ccccc5O4)CC3)c(Cl)cc12 (centres undefined)	inconclusive [inhibitor, single point]	–
Cc1nc(NC(=S)NC(=O)c2ccccc2)sc1C	inconclusive [inhibitor, partial curve]	–
O=C(c1cccs1)c1ccc(-c2cccs2)s1	inactive	–
COC(=O)C1=CN(c2cccc(OCc3ccccc3)c2)C(N)=C(C#N)C1c1cccc(OC)c1OC (centres undefined)	active: 14.6 µM	–
CC(=O)N1CCC2(CC1)CN(Cc1cc(C(F)(F)F)cc(C(F)(F)F)c1)C2	inactive	–
O=C(N/C(=C/c1ccccc1Cl)C(=O)N1CCCCC1)c1ccco1	inconclusive [inhibitor, single point]	–
Cc1cccc(C(=O)NCc2nc(-c3cccc(NC(=O)C4CCCN(C)C4)c3)oc2C)n1 (centres undefined)	inconclusive [inhibitor, single point]	–

SMILES	Potency	activity change, negative = growth inhibition
COC(=O)C(NNc1ccccc1C)(NC(=O)c1ccc(F)cc1)C(F)(F)F (centres undefined)	inconclusive [inhibitor, single point]	–
CSCc1cc(N2CCOCC2)nc(-c2ccccc2)n1	inconclusive [inhibitor, single point]	–
COc1ccc(C)cc1S(=O)(=O)Nc1cccc(Cl)c1	inconclusive [inhibitor, partial curve]	–
O=C(Nc1cc(F)cc(F)c1)c1ccc(NCCc2ccccc2)c([N+](=O)[O-])c1	inactive	–
CCOC(=O)N1CCN(C(=O)C[C@@H]2C[C@@]3(C(=O)OCC)CCCC=C3N(CCc3ccc(OC)c(OC)c3)C2=O)CC1	inconclusive [inhibitor, single point]	–
COc1ccc(Nc2cc(C(=O)NCCCOC(C)C)c3ccccc3n2)c(OC)c1	active: 16.4 µM	–
Cc1cccc(C)c1NC(=O)CNC(=O)c1c(C)nn(-c2ccccc2)c1Cl	inactive	–
CN(Cc1ccccc1)CC1CCCN(CCc2ccccc2F)C1 (centres undefined)	inconclusive [inhibitor, single point]	–
O=C(Cn1c(=O)n(Cc2ccco2)c(=O)c2ccccc21)Nc1cccc(F)c1	inconclusive [inhibitor, single point]	–
O=C1c2cccc3cccc(c23)C(=O)N1CC1CCCO1 (centres undefined)	inconclusive [inhibitor, single point]	–
CC(=O)c1ccc(NC(=O)c2cnc(N3CCCC3)nc2C)cc1	–	inconclusive: -31.6% [inhibitor]
CCOc1cc(C#N)c(NC(=O)c2ccc(OC)c(S(=O)(=O)N3CCCCC3)c2)cc1OCC	inconclusive [inhibitor, single point]	–
Cc1cc(C(=O)CSc2nnnn2C)c(C)n1-c1ccc2c(c1)OCCO2	inconclusive [inhibitor, single point]	–
Nc1nnc(SCCCC(=O)c2ccc(F)cc2)s1	inconclusive [inhibitor, single point]	–
CCCCNC(=O)CSc1nc2ccc(N3CCOCC3)cc2c(=O)n1CCc1ccccc1	inconclusive [inhibitor, single point]	–
COc1ccc2c(=O)c3c(=O)n(-c4ccccc4)c(-c4ccc(C)cc4)nc3oc2c1	active: 18.4 µM	–
CN(C(=O)c1ccc(S(=O)(=O)N2CCOCC2)cc1)C1CCS(=O)(=O)C1 (centres undefined)	inactive	–
CCOc1cc2c3c(c1)C(C)CC(C)(C)N3C(=O)C2=O (centres undefined)	active: 18.4 µM	–
CCOc1ccc(NC(=O)Cn2nnc(C(=O)NCCc3ccc(OC)c(OC)c3)c2N)cc1	inconclusive [inhibitor, single point]	–
CC(C)c1ccc(-n2cnn(-c3ncccc3[N+](=O)[O-])c2=O)cc1	inconclusive [inhibitor, single point]	–
CCc1ccccc1NC(=O)Cn1c(=O)n(-c2ccccc2)c(=O)c2oc3ccccc3c21	inconclusive [inhibitor, partial curve]	–
COc1cc2c(cc1OC)C(c1ccc3c(c1)OCO3)CC(=O)N2 (centres undefined)	inconclusive [inhibitor, single point]	–
CN(C)S(=O)(=O)c1cccc(C(=O)Nc2ccccc2[N+](=O)[O-])c1	–	inconclusive: -30.7% [inhibitor]
O=C(Nc1ccc(O)c2c(=O)cc(-c3ccccc3Cl)oc12)c1ccc(Cl)cc1Cl	inconclusive [inhibitor, partial curve]	–
CCn1c(SCc2ccccc2)nc2c1c(=O)[nH]c(=O)n2C	active: 18.4 µM	–

SMILES	Potency	activity change, negative = growth inhibition
O=C(CN1CCCCC1)c1c[nH]c2ccccc12	inactive	–
COc1ccc(-n2nc(C(=O)NCC(=O)N3CCC(C)CC3)c3ccccc3c2=O)cc1	inconclusive [inhibitor, single point]	–
C=CCc1cc(Cl)ccc1OCCN1CC(C)OC(C)C1 (centres undefined)	active: 20.6 µM	–
Cc1ccc2oc(=O)c3cc(C(=O)N4CCN(C)CC4)sc3c2c1	inactive	–
Cc1cc(C)c2cc3c(ccn3C3OC[C@H](O)[C@H](O)[C@H]3O)cc2n1 (some centres undefined)	inactive	–
Cc1ccccc1Nc1nc(N)nc(COC(=O)c2cccc(S(=O)(=O)N(C)c3ccccc3)c2)n1	inconclusive [inhibitor, single point]	–
CC(C)C1CC(CCNCc2ccc3c(c2)OCO3)(c2ccccc2)CCO1 (centres undefined)	inconclusive [inhibitor, single point]	–
Cc1ccc(NC(=O)C2(S(=O)(=O)c3ccc(C)cc3)CC2)cc1	inconclusive [inhibitor, single point]	–
O=C(CCC(=O)Nc1cccc(C(F)(F)F)c1)NCC1CCCO1 (centres undefined)	inactive	–
C=CCn1c(SCC(=O)Nc2cc(C)on2)nnc1-c1ccccc1F	inactive	–
N=c1n(CCN2CCOCC2)c2ccccc2n1Cc1ccccc1Br	inconclusive [inhibitor, partial curve]	–
CCOCCCNC(=O)c1c(C)c(C(=O)OCC)n(C)c1C	–	inconclusive: -38.8% [inhibitor]
COc1ccc2c(c1)CC(C(=O)Nc1ccc(Br)c(C)c1)CO2 (centres undefined)	inconclusive [inhibitor, partial curve, poor fit]	–
CCN(C(=O)CSc1nc(-c2ccc(C(C)C)cc2)no1)c1ccccc1	inconclusive [inhibitor, single point]	–
O=C(Nc1nnc(S(=O)(=O)N2CCCc3ccccc32)s1)c1ccc(Cl)cc1	active: 18.4 µM	–
O=C(C1CCCCC1)N(Cc1cccnc1)c1nc2ccc(Cl)cc2s1	inconclusive [inhibitor, single point]	–
Cc1cc(NC(=O)COC(=O)c2c(Cl)cccc2Cl)no1	inactive	–
COc1ccc(C(CNC(=O)COc2ccc([N+](=O)[O-])cc2)N2CCCCC2)cc1 (centres undefined)	inactive	–
O=C(C1=NN(c2ccccc2)C2C(=O)N(c3ccccc3)C(=O)C12)c1ccccc1 (centres undefined)	inactive	–
Cn1c(CCc2nc3ccccc3[nH]2)nnc1SCC#N	inactive	–
CCc1cc(CC)c(/C=N/NC(N)=O)c(CC)c1	inconclusive [inhibitor, single point]	–
CCN(CC)CCCN(C(=O)c1ccc(F)cc1)c1nc(-c2ccc(OC)cc2)cs1	active: 10.3 µM	–
CC(=O)Nc1ccc(S(=O)(=O)NCc2csc(C)n2)cc1	inactive	–
CCn1c(SCC(=O)NCCc2ccccc2)nc2sc3c(c2c1=O)CCN(C)C3	inconclusive [inhibitor, single point]	–
